This passage reports binding signal results from paper PMC12136788.

T1: UNK ZnF1-3 (human, UniProt Q9C0B0 31-174)
T1 sequence: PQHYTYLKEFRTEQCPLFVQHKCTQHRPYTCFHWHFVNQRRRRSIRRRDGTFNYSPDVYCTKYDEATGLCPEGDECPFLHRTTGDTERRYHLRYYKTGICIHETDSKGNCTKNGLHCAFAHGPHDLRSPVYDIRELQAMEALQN

B1: chr6:83927055:83927056:+_ENSMUSG00000030016_ENSMUST00000032088|mus_hu|motif|central (ssRNA)
RNA: GGGAGUUCUACAGUCCGACGAUCUGUAGCUUUUGCCUUAGGAGAAGAGACUAUAACAGCCUUGAUGCUUGGUUUACUGCGGGAUACAUCUGAUACAGCCAGAAUACUAGUUUUACUAGUUUCAUCAGGCUUAUUAGCCUGACCCAACAGAGGAUUGAGCAUCA
B2: chr1:39494447:39494448:+_ENSG00000168653_ENST00000372967|hu_mus|hu_hu_hu_mus_False|8_88 (ssRNA)
RNA: GGGAGUUCUACAGUCCGACGAUCGCACCGAGCGGCGUUCUUAUAGGGCUGUUCACCGCUUAGGAACAUAAAGUGCCGGUCCAGGCUGAUGCCCAGCUUUUUCUGUAUGUCAAGGAAAGGCAUGGCUGAUGCUCGUGCUUGUCACAACAGAGGAUUGAGCAUCA
B3: chr17:85413340:85413341:+_ENSMUSG00000061130_ENSMUST00000080217|mus_hu|FALSE|FALSE (ssRNA)
RNA: GGGAGUUCUACAGUCCGACGAUCUCAAUUUUACACUAUCUCAUAAAGGUGUAUGCAAAGGCCUUUUUAAAAAACAAGGCUAUCUGAAUAUAAUAAAACUAGUUUUCCAAGAUUCAAAUAACAAAACAGUUAUAUAAAUGCAUACAACAGAGGAUUGAGCAUCA
B4: chr1:214815296:214815297:+_ENSG00000117724_ENST00000366955|hu_hu|FALSE|FALSE (ssRNA)
RNA: GGGAGUUCUACAGUCCGACGAUCAAGUUUUAAUUCCUUAUUUCUUAGCAUAGCUUCUAAUUGCACCAACUGCGCAUUAUAACUAUCUAGAGAAAUUUCUUUAACUUCAAGAUCCAUCUGAGGUUUAAAAUUACAUUGAUUUCUCAACAGAGGAUUGAGCAUCA
B5: chr14:57575763:57575764:+_ENSMUSG00000021945_ENSMUST00000022511|mus_mus|motif|central (ssRNA)
RNA: GGGAGUUCUACAGUCCGACGAUCCACUGUUUUCAGGCCAAAAUACUUAGUGUUAAAGUAGAAUAGGGUAUUCAAAAGUGCGGCUGGAGAGUGGGAUCCUAGUUGUUUUAUCCUCCAGAGAUAGUCUUCUUCAACUCGAGAGAACAACAGAGGAUUGAGCAUCA
B6: chr11:69468634:69468635:+_ENSG00000110092_ENST00000227507|hu_hu|FALSE|FALSE (ssRNA)
RNA: GGGAGUUCUACAGUCCGACGAUCCAGAACACUAGUACAUAACAGAUUAAACAUACCCAAAACUUGAACAAAUUCCAGAAGCUAUUCCAAUCAUCCCGAAUGAGAGUCCUACAGGUACAACGCCGUGGUGGCACGUAAGACACACAACAGAGGAUUGAGCAUCA
B7: chr4:82449818:82449819:-_ENSMUSG00000028403_ENSMUST00000030110|mus_mus|motif|central (ssRNA)
RNA: GGGAGUUCUACAGUCCGACGAUCUGUAAUAAAUGUUUUGUUUUGUAGUAAAAUAGUAUUUUAAGUAAGUUUUUAUAAUGCGGACAAGAUAAGUUGCCAAAAUAAGGUUUAAAGUAAAAUACAUGAAACAGCUUAAACUAAUCGCAACAGAGGAUUGAGCAUCA
B8: chr8:101932682:101932683:-_ENSG00000164924_ENST00000353245|hu_mus|motif|central (ssRNA)
RNA: GGGAGUUCUACAGUCCGACGAUCGACAUGGAAGCAGUUUUAACACUGGCCCUUCUGAAGCCACAAUGUACCAAAAGUACGGUGCCAAACAUGUGUAACUCAUGUAAAAAUUCCACAUCCCAUAUUGGCCACCUCAAGAUGAAACAACAGAGGAUUGAGCAUCA
B9: chr16:57506169:57506170:-_ENSG00000125170_ENST00000340099|hu_mus|motif|central (ssRNA)
RNA: GGGAGUUCUACAGUCCGACGAUCCUGCCACACAUGUGAACAGUGGUUAUUUACAAGGUCUGUUCCCACAAAUCAGAACCCGGAAGUAUUAAAAAACAGAAACACGCAACAAAAGGUUUGAUGUGAAUAGAAAGAUAGCCCUUCCAACAGAGGAUUGAGCAUCA
B10: chr17:64801638:64801639:+_ENSG00000154229_ENST00000413366|hu_mus|hu_hu_hu_mus_False|68_78 (ssRNA)
RNA: GGGAGUUCUACAGUCCGACGAUCUAUAUAUAUAUAUACAUAUGUACACAUAUAUAGUAAGAGCCUAAUCUAUCACGUAAAGUAGCCAUUCAUUUUUAAAAUUACAUCUACAUUAAAAAAUUAAUAUAUCUGAUAGAGUGCCAGCAACAGAGGAUUGAGCAUCA
B11: 83067373_83067493_1321_CDS_ENSMUSG00000030036_ENSMUST00000032114|mouse|control|control (ssRNA)
RNA: GGGAGUUCUACAGUCCGACGAUCGAAAAGAGGGACAGGUGGAAACAGGGCAGGGUCCAUUUUCUGUUCAGACCCUUCCAUGCUAGUGUCUGGCAACACUAAACCCUGUCCAUAGAAGUAACCAAUCCCACCAAGAAGGCCACUCAACAGAGGAUUGAGCAUCA
B12: 3137973_3142276_2923_CDS_ENSG00000197386_ENST00000355072|human|control|control (ssRNA)
RNA: GGGAGUUCUACAGUCCGACGAUCUUGUCCUUGGUCACAUUUAUAAAACAGCUUUGGGACAAGCCUAAUUAGUGAUGCUGCGGCAACAUGUCGCACCCUGGGGUCUUCAUCUCCAAGCAAAUGGAUGACAACAUUAUUGAGCACCAACAGAGGAUUGAGCAUCA
B13: chr14:31888013:31888014:+_ENSMUSG00000042323_ENSMUST00000112095|mus_hu|FALSE|FALSE (ssRNA)
RNA: GGGAGUUCUACAGUCCGACGAUCGCUGAGUGCCGGUGAAAGAAGAAUCUCUCCAUUUUUGCAGAGUUCAUCACGAAUUUUAAUAAAAAACUGCUGAAGUUCUACUGCAUCUUCAUAUAUUUCUGAAUCUGUCCGAUUCAUCCUCAACAGAGGAUUGAGCAUCA
B14: chr1:74670475:74670476:+_ENSG00000254685_ENST00000370898|hu_hu|motif|central (ssRNA)
RNA: GGGAGUUCUACAGUCCGACGAUCGUCCUGUUGACAAAAAUUUCCAGGUCUACACACAGCAUUAAACUGAUACAUCUUUUCGGUGCUGGGCUUAUGAAGGAAACGAUGGCAAGACCUGUAUUCAAGGUCUCUAUGUUUUAAAUCCAACAGAGGAUUGAGCAUCA
B15: chr1:109605286:109605287:-_ENSG00000197780_ENST00000461096|hu_mus|hu_hu_hu_mus_True|8_98 (ssRNA)
RNA: GGGAGUUCUACAGUCCGACGAUCAAGUUUCAGAGUAUUCAGUGAUCACCUCUUUAAAUGCAAUUAUCCUUAUUAUAAGCUAAGCAGAAUAAUAAUUUAAUACCGUAAGUGAACUACACACAAAGCCGUGUAUUCAGAAAUGGUCAACAGAGGAUUGAGCAUCA
B16: 34756271_34756391_4016_CDS_ENSMUSG00000039967_ENSMUST00000047950|mouse|control|control (ssRNA)
RNA: GGGAGUUCUACAGUCCGACGAUCCUUGGGUUUUCUUUCCUUCCCAUUUGGGCCUCGACCACGGUCUUUUUUCACUUUCUUAGGUGUAGACGGUUGGGCACUGGUGCUACUGAAGUCAUCUGCAGAACUUACUUGGGAAGGAAACAACAGAGGAUUGAGCAUCA
B17: chr11:29606814:29606815:+_ENSMUSG00000020458_ENSMUST00000102843|mus_mus|motif|central (ssRNA)
RNA: GGGAGUUCUACAGUCCGACGAUCCACUUUAGUAAGGGUCGCAGGUGACUCUUGUGGAUUAUGAAGGGCUGCACUACAAACGGAAUCCUCUUUGUCUUUACUCCUCACAAUUACUUCUUCCUUAGUGUUUUCUACUAACAUGGCCAACAGAGGAUUGAGCAUCA
B18: chr8:11702082:11702083:-_ENSG00000164733_ENST00000533455|hu_hu|FALSE|FALSE (ssRNA)
RNA: GGGAGUUCUACAGUCCGACGAUCCGCUGUUCCACUGGCUCACCCACAUGAUUAGCAGAGUGCACGAAAAAAUAAAACUUCUAUUAAAGAAUCAUGCUGAGCACAAGAUCAGAGAGGUUGUGACAUUGCAAACUCGAUAGAUGCCAACAGAGGAUUGAGCAUCA
B19: 73659817_73744017_530_3pUTR_ENSMUSG00000049122_ENSMUST00000084474|mouse|control|control (ssRNA)
RNA: GGGAGUUCUACAGUCCGACGAUCCUCAAGCCAGUGCCUUUGCUUCUCUGGGUCCACAUAGCGAAUUCCAAAGUAGUCCUUUUCCAGCAGGCUAUAGUAGUUGCAGAUGUAUUCAAUGAGAAACUGCCCUUUCGUUUCCCUCUGCAACAGAGGAUUGAGCAUCA
B20: chr3:89866305:89866306:+_ENSMUSG00000027942_ENSMUST00000161918|mus_hu|FALSE|FALSE (ssRNA)
RNA: GGGAGUUCUACAGUCCGACGAUCUUCAUACGUUUUAUUUGAUAAUAGUUCAUUUUAUUAAAUAAUUUAUAAAGUCAGACCAGUGCAUUGGGCUUGUUAGGGGAAACCAUUCCUUCCUACUGUCACAUAGCCUGGCAGAUUAUACAACAGAGGAUUGAGCAUCA
B21: chr10:60036935:60036936:+_ENSG00000122873_ENST00000333926|hu_hu|FALSE|FALSE (ssRNA)
RNA: GGGAGUUCUACAGUCCGACGAUCGUGAAGGUUUAUCAUAGCUUUAUUUCGAUGAUCUUUAACAUAAAAUCUUUUGUAAGCUAGAUAACCAAUUGCAGCUGUCCCAGCAGCAAUGGUAACUGCUGCGAUCCAUUCAACUCGUACCAACAGAGGAUUGAGCAUCA
B22: chr6:41757443:41757444:+_ENSG00000214736_ENST00000398881|hu_mus|hu_hu_hu_mus_False|18_98 (ssRNA)
RNA: GGGAGUUCUACAGUCCGACGAUCGAACCGUGCAGAGACCAGAGAAUAGCCGACACUGGGGGAUGGGGGGGCAGUGGGGGGGGGUUCAGGCAAGGAGAGGGAGUCAACUUCAGCUGCUCAAACUUCAGGAUCUUGUGGUCACAGCAACAGAGGAUUGAGCAUCA

Some of the results follow.

In this assay the target is T1, UNK ZnF1-3. Kind of assay: nsRBNS (natural sequence RNA bind-n-seq); RBNS binding buffer (assumed for nsRBNS): 25 mM Tris pH 7.5, 150 mM KCl, 3 mM MgCl2, 0.01% Triton X-100, 500 ug/ml BSA, 20 U/ml SUPERase-In, 4 C; UNK is unkempt and MSI1 is Musashi-1; names of the RNAs are library labels; protein concentration not given here; high values mean tight binding.
In turn, B1 registered a binding signal of 0.743 enrichment R.

For B2, the binding signal came out at 0.939 enrichment R. As to B3, the binding signal is 0.954 enrichment R. As for B4, the figure is 0.513 enrichment R. As for B5, the figure is 1.29 enrichment R; as for B6, 2.08 enrichment R; as for B7, 2.34 enrichment R. As for B8, the binding signal amounted to 0.995 enrichment R. As for B9, the figure is 2.77 enrichment R. With B10, the binding signal was determined as 1.31 enrichment R.

In turn, B11 displayed a binding signal of 0.894 enrichment R. As for B12, the figure is 1.38 enrichment R.

Turning to B13, the binding signal was determined as 0.906 enrichment R.

B14 had a binding signal of 1.24 enrichment R.

Molecule B15 gave a binding signal of 0.66 enrichment R.

B16 gave a binding signal of 0.322 enrichment R. As for B17, the figure is 0.776 enrichment R; as for B18, 2 enrichment R; as for B19, 0.738 enrichment R.

As to B20, the binding signal came out at 1.91 enrichment R. In turn, B21 gave a binding signal of 0.444 enrichment R. As for B22, the figure is 1.27 enrichment R.
